Source: the supplement of paper PMC6135742
Structures can show the parent of a compound that is named as a salt. ± gives the standard deviation of the averaged measurements. In all, about 2,600 compounds were measured (“total cell number (DAPI+ nuclei) relative to DMSO vehicle control”: median about -1.4, lowest 2% from about -23 on). Some of the results follow.

test system: jimpy (Plp1 jimpy) mouse iPSC-derived oligodendrocyte progenitor cells; assay: total cell number (DAPI+ nuclei) relative to DMSO vehicle control (SDs above negative control mean); higher = more surviving cells; conditions: 10 µM; 3 days

SMILES	total cell number
COc1ccc(/C=C/c2nc(NCCCN(C)C)c3ccccc3n2)cc1	-10.6
Cc1ccc(O)c(N=Nc2ccccc2)n1	-1.95
CC(C)N(C[C@H]1O[C@@H](n2cnc3c(N)ncnc32)[C@H](O)[C@@H]1O)[C@H]1C[C@@H](CCc2nc3cc(C(C)(C)C)ccc3[nH]2)C1	-3.08
COC(=O)C1=C(C)NC(C)=C(C(=O)OCCN2CCN(C(c3ccccc3)c3ccccc3)CC2)C1c1cccc([N+](=O)[O-])c1 (stereo not drawn) [Manidipine]	-13
COC(=O)C1=C(C)NC(C)=C(C(=O)OCCN2CCN(C(c3ccccc3)c3ccccc3)CC2)C1c1cccc([N+](=O)[O-])c1 (stereo not drawn) [Manidipine 2HCl]	-11.4
COC(c1ccccc1)(c1ccccc1)[C@H](Oc1nc(C)cc(C)n1)C(=O)O [Ambrisentan]	0.746
COc1ccc([C@@H]2CC(=O)c3c(O)cc(O[C@@H]4O[C@H](CO[C@@H]5O[C@@H](C)[C@H](O)[C@@H](O)[C@H]5O)[C@@H](O)[C@H](O)[C@H]4O)cc3O2)cc1O [Hesperidin]	-0.925
CC(N)=NCCCC[C@H](N)C(=O)O [L-N6-(1-Iminoethyl)lysine hydrochloride]	-1.71
CC(C)(C(=O)O)c1ccc(C(O)CCCN2CCC(C(O)(c3ccccc3)c3ccccc3)CC2)cc1 (stereo not drawn) [Fexofenadine HCl]	-1.24
CC(C)(C(=O)O)c1ccc(C(O)CCCN2CCC(C(O)(c3ccccc3)c3ccccc3)CC2)cc1 (stereo not drawn) [Fexofenadine hydrochloride]	0.444
O=c1cc(N2CCOCC2)oc2c(-c3cccc4c3sc3ccccc34)cccc12	-11.4
CN(C)CCCN1c2ccccc2Sc2ccccc21 [Promazine hydrochloride]	-4.46
Cc1cc(C(C)(C)C)c(O)c(C)c1CC1=NCCN1 [Oxymetazoline hydrochloride]	-1.52
Cc1cc(C(C)(C)C)c(O)c(C)c1CC1=NCCN1 [Oxymetazoline HCl]	1.07
CC(=O)O[C@]1(C(C)=O)CC[C@H]2[C@@H]3C[C@H](C)C4=CC(=O)C=C[C@]4(C)[C@@]3(F)[C@@H](O)C[C@@]21C [Fluorometholone Acetate]	7.08
O=C[C@H](O)[C@@H](O)[C@H](O)CO [Xylose]	-0.515
Cc1oncc1C(=O)Nc1ccc(C(F)(F)F)cc1 [Leflunomide]	0.416 ± 0.91
O=C(O)c1cccnc1Nc1cccc(C(F)(F)F)c1 [Niflumic acid]	-0.659 ± 0.94
CC1CC(OC(=O)C(O)c2ccccc2)CC(C)(C)C1 (stereo not drawn) [Cyclandelate]	0.293
CC(CCc1ccccc1)NCC(O)c1ccc(O)c(C(N)=O)c1 (stereo not drawn) [Labetalol hydrochloride]	-8.09
CCOC(=O)[C@H](CCc1ccccc1)N[C@@H](C)C(=O)N1Cc2ccccc2C[C@H]1C(=O)O [Quinapril HCl]	-1.89
Cc1cn(C2C=CC(CO)O2)c(=O)[nH]c1=O (stereo not drawn) [2',3'-didehydro-3'-deoxythymidine]	-1.17
Cc1cn([C@H]2O[C@@H](CO)[C@H](O)[C@H]2F)c(=O)[nH]c1=O [Clevudine]	-1.07
Cc1onc(-c2c(Cl)cccc2Cl)c1C(=O)N[C@@H]1C(=O)N2[C@@H]1SC(C)(C)[C@@H]2C(=O)O [Dicloxacillin Sodium]	-1.44
Cc1cc(NC(=O)Nc2ccc(N(C)C)cc2)c2cc(F)cc(F)c2n1	7.6

SMILES	total cell number
Cn1cc(-c2ccc3ncc(Cc4ccc5ncccc5c4)n3n2)cn1	-5.21
CC1C(=O)OC2C(O)C34C5CC(C(C)(C)C)C36C(OC(=O)C6O)OC4(C(=O)O5)C12O (stereo not drawn) [Ginkgolide B]	0.63
C[N+](C)(C)CCCCCC[N+](C)(C)C [Hexamethonium dichloride]	-0.141
C[N+](C)(C)CCCCCC[N+](C)(C)C [Hexamethonium bromide]	-1.23
CCCCCCCCc1ccc(-c2ccc(C(=O)O)cc2)cc1	-1.51
CN(C)/N=N/c1[nH]cnc1C(N)=O [Dacarbazine]	1.44
CCCCCC[C@@H]([C@@H](C)O)n1cnc2c(N)ncnc21 [erythro-9-(2-Hydroxy-3-nonyl)adenine hydrochloride]	0.262
Nc1nc2c(ncn2[C@@H]2O[C@H](CO)[C@@H](O)[C@H]2O)c(=O)[nH]1 [Guanosine]	-0.603
CC1(C)S[C@@H]2[C@H](NC(=O)[C@H](NC(=O)N3CCNC3=O)c3ccccc3)C(=O)N2[C@H]1C(=O)O [Azlocillin sodium salt]	-0.73
Nc1nc2c(c(=O)[nH]1)C[C@@H](CCc1ccc(C(=O)N[C@@H](CCC(=O)O)C(=O)O)cc1)CN2 [Lometrexol hydrate]	-1.44
CC(C)c1ccc2oc3nc(N)c(C(=O)O)cc3c(=O)c2c1 [Amlexanox]	-1.83
O=C1[C@H](Cc2ccc(O)cc2)N2C(=O)CCN(C(=O)NCc3ccccc3)[C@H]2CN1Cc1cccc2ccccc12	-7.61
CCn1c2ccccc2c2cc(Nc3ccnc(NCCCN4CCOCC4)n3)ccc21	-16.4
COc1cccc2c1[C@@H]1CN(CCCCn3c(=O)[nH]c4c(sc5ncc(-c6ccccc6)nc54)c3=O)C[C@@H]1CO2 [Fiduxosin hydrochloride]	-6.17
O=C(C=Cc1ccccc1)NC(NC(=S)Nc1ccc(Cl)cc1)C(Cl)(Cl)Cl (stereo not drawn)	-2.46
CN[C@@H]1[C@H](O[C@H]2[C@H](O[C@H]3[C@H](O)[C@@H](O)[C@H](N=C(N)N)[C@@H](O)[C@@H]3N=C(N)N)O[C@@H](C)[C@]2(O)C=O)O[C@@H](CO)[C@H](O)[C@H]1O [Streptomycin sulfate]	-1.22
Nc1nc(Cl)nc2c1ncn2[C@H]1C[C@H](O)[C@@H](CO)O1 [Cladribine]	-22.8
OCCOCCN1CCN(C2=Nc3ccccc3Sc3ccccc32)CC1 [Quetiapine Fumarate]	-6.87
Cc1cc(C(=O)NOCCO)c(Nc2ccc(I)cc2F)n(C)c1=O	-8.75
Cn1cnc2c(NCc3ccccc3)nc(NCCO)nc21 [Olomoucine]	1.01
CC1(C)S[C@@H]2[C@H](NC(=O)[C@H](N)c3ccc(O)cc3)C(=O)N2[C@H]1C(=O)O [Amoxicillin Sodium]	-0.368
CC1(C)S[C@@H]2[C@H](NC(=O)[C@H](N)c3ccc(O)cc3)C(=O)N2[C@H]1C(=O)O [Amoxicillin]	-1.32
COc1cccc2c1C(=O)c1c(O)c3c(c(O)c1C2=O)C[C@@](O)(C(=O)CO)C[C@@H]3O[C@H]1C[C@H](N)[C@H](O)[C@H](C)O1 [Doxorubicin (Adriamycin)]	1.92
N#Cc1c(O)c2c(-c3ccc(-c4ccccc4O)cc3)csc2[nH]c1=O	0.298
CCCCC(=O)O[C@H]1CC[C@H]2[C@@H]3CCc4cc(O)ccc4[C@H]3CC[C@]12C [Estradiol valerate]	-1.15

SMILES	total cell number
Cc1[nH]c2ccccc2c1CCNC(=O)c1cccs1	-3.09
N=C(N)c1ccc(OCCCCCOc2ccc(C(=N)N)cc2)cc1 [Pentamidine isethionate]	-7.16
N=C(N)c1ccc(OCCCCCOc2ccc(C(=N)N)cc2)cc1 [Pentamidine]	-7.31
Fc1ccc(C(c2ccc(F)cc2)N2CCN(C/C=C/c3ccccc3)CC2)cc1 [Flunarizine 2HCl]	-7.08
Fc1ccc(C(c2ccc(F)cc2)N2CCN(C/C=C/c3ccccc3)CC2)cc1 [Flunarizine dihydrochloride]	-7.03
Oc1ccc([C@H]2COc3cc(O)ccc3C2)cc1 [Equol]	0.365
O=c1cc(-c2cccc3c2Sc2ccccc2S3)oc(N2CCOCC2)c1	-7.57
Cc1ccc(Nc2c(F)cccc2Cl)c(CC(=O)O)c1 [Lumiracoxib]	-1.07
CCCc1cc(=O)[nH]c(=S)[nH]1 [Propylthiouracil]	-0.866
Cc1onc(-c2ccccc2)c1-c1ccc(S(N)(=O)=O)cc1 [Valdecoxib]	3.38
C=C1C(=O)O[C@@H]2/C=C(\C)CC/C=C(\C)CC[C@@H]12 [Costunolide]	-21
O=C(Nc1ccccc1)c1cc([N+](=O)[O-])ccc1Cl	-3.05 ± 0.71
CO/N=C(\C(=O)N[C@@H]1C(=O)N2C(C(=O)OCOC(=O)C(C)(C)C)=C(/C=C\c3scnc3C)CS[C@H]12)c1csc(N)n1 [Cefditoren Pivoxil]	1.67
CCC(=O)N1CCN(c2ccc(-n3c(=O)ccc4cnc5ccc(-c6cnc7ccccc7c6)cc5c43)cc2C(F)(F)F)CC1 [Torin 1]	-8.12
O=C(CCc1ccc(O)cc1)c1c(O)cc(O)cc1O[C@@H]1O[C@H](CO)[C@@H](O)[C@H](O)[C@H]1O [Phlorizin]	-0.632
O=[N+]([O-])c1ccc(-c2nc(-c3ccc(F)cc3)c(-c3ccncc3)[nH]2)cc1	-3
Oc1ncnc2[nH]ncc12 [Allopurinol]	0.0628 ± 2.7
CN(N=O)C(=O)NC1C(O)OC(CO)C(O)C1O (stereo not drawn) [Streptozotocin (STZ)]	0.253
C=C[C@]1(C)C[C@@H](OC(=O)CS[C@@H]2C[C@H]3CC[C@@H](C2)N3C)[C@]2(C)[C@H](C)CC[C@]3(CCC(=O)[C@H]32)[C@@H](C)[C@@H]1O [Retapamulin]	-0.832
S=C(S)OC1CC2CC1C1CCCC21 [D-609 potassium]	-1.99
CNCCCC1c2ccccc2C=Cc2ccccc21 [Protriptyline hydrochloride]	-6.64
CCOC(=O)C1=C[C@@H](OC(CC)CC)[C@H](NC(C)=O)[C@@H](N)C1 [Oseltamivir phosphate]	0.306
C[C@]12CCC(=O)C=C1CC[C@@H]1[C@@H]2[C@@H](O)C[C@@]2(C)[C@H]1CC[C@]2(O)C(=O)CO [Hydrocortisone]	3.57 ± 2.3
